The record followed here is PMC6919601, “Identification of Plasmodium dipeptidyl aminopeptidase allosteric inhibitors by high throughput screening” (PLoS ONE, 2019).

The campaign covered roughly 110,000 compounds. About 230 (0.21%) showed an effect of 50% or more. The list shows a part of the results.
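Note: 30 min substrate incubation versus DMSO and 10 µM JCP410 controls.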

The target of the assay is DPAP1 (Plasmodium falciparum, UniProt Q8IIJ9). As to the kind of experiment: primary screen, percent inhibition; read by cleavage of a fluorogenic dipeptide substrate; higher = more effect of the substance. The arrangement: species or system P. falciparum D10 trophozoite lysates; single well.
Sequence of DPAP1 (Q8IIJ9 whole entry, looked up): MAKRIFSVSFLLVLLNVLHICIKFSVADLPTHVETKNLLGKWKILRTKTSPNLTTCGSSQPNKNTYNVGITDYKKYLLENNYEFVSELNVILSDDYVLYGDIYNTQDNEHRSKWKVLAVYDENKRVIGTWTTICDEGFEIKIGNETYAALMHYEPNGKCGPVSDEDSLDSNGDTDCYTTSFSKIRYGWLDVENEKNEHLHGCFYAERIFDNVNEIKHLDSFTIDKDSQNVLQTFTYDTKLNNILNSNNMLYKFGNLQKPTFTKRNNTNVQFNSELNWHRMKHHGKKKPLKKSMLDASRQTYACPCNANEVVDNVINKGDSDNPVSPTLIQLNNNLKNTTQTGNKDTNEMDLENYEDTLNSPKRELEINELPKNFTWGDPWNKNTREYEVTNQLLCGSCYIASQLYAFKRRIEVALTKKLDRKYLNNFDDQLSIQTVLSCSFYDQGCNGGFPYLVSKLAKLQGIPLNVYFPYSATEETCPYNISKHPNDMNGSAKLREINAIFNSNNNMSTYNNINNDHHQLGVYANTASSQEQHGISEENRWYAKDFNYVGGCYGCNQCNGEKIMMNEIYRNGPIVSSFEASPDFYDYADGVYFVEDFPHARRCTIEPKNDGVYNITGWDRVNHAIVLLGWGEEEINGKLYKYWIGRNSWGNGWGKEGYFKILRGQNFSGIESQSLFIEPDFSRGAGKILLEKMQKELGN
Regarding `Cc1csc(NC(=O)CSc2nnc(Cc3cccn3C)n2-c2ccccc2)n1`, the “% Inhibition @ 10 uM” value is recorded as -4.97%. Regarding `COc1ccc(C(=O)NCc2ccco2)c(OC)c1`, the “% Inhibition @ 10 uM” value is given as 18.5%. For the molecule `N#CC1=C(N)OC2=C(C(=O)CC(c3ccco3)C2)C1c1ccc(F)cc1F` (stereo not drawn), the “% Inhibition @ 10 uM” value is recorded as 2.32%. For `CC1CCC(NC(=O)CNC(=S)N2CC3CC(C2)c2cccc(=O)n2C3)CC1` (stereo not drawn), the “% Inhibition @ 10 uM” value is listed as -5.92%. Then `COc1ccc(CCN2CC(C(=O)NCc3ccco3)CC2=O)cc1OC` (stereo not drawn), with -3.58%; and `O=C(c1ccccc1)c1cc2c3c(ccc4c3c1NC=N4)CC2`, with 7.18%; and `N/C(=C\C(=O)C(F)(F)F)c1ccc(Cl)cc1`, with 4.41%. Next, `O=C(NC1CCN(c2ncccn2)CC1)c1c(F)cccc1F`: -1.11%; `O=C1Sc2ccc(S(=O)(=O)Nc3ccc(O)c4ccccc34)c3cccc1c23`: 3.29%; `CCC1(C)N(O)C(C)(C)C(c2ccccc2)=[N+]1[O-]` (stereo not drawn): 3.47%. On to `CN(CCc1ccccn1)Cc1ccc(Br)o1`, for which the “% Inhibition @ 10 uM” value is reported as -8.75%.

On to `Cc1sc(NC(=O)c2ccccc2F)c(C#N)c1C`, for which the “% Inhibition @ 10 uM” value turned out to be 2.38%. Next, `O=C1NC(=S)S/C1=C\c1c(NCCO)nc2ccccn2c1=O`: 3.27%. Next, `N=C1/C(=C\c2ccc(-c3ccc(Cl)cc3)o2)C(=O)N=C2SC(N3CCCC3)=NN12`: 1.72%; `O=C(Nc1ccccc1)N1CCN(C(=O)Nc2ccccc2)CC1`: -2.3%. Take `COc1ccc(CNC(=O)c2cnn3c2NC(c2ccc(C)cc2)CC3C(F)F)cc1OC` (stereo not drawn): the “% Inhibition @ 10 uM” value came out at 7.16%. As to `Nc1no[n+]([O-])c1C(=O)NCc1nc2ccccc2[nH]1`, the “% Inhibition @ 10 uM” value is on record as -2.28%. Then `O=C(CN(c1ccc2c(c1)OCCO2)S(=O)(=O)c1ccccc1)NCC1CCCO1` (stereo not drawn), with -13.8%; and `CN(CCC#N)CC(=O)Nc1cccnc1Cl`, with -2.19%.

Consider `O=C(c1nc2ccccc2o1)C(NC(=O)[C@H](CS(=O)(=O)Cc1ccccc1)NC(=O)N1CCOCC1)c1cccs1` (stereo partly drawn), for which the “% Inhibition @ 10 uM” value is -3.04%. As to `Nc1ccc(C(=O)Nc2ccc(NC(=O)c3ccc(N)cc3)cc2)cc1`, the “% Inhibition @ 10 uM” value is reported as -4.26%. Take `Cc1cc(C)nc(/N=C(\N)Nc2ccc(Cl)cc2Cl)n1`: the “% Inhibition @ 10 uM” value is given as 2.65%. Then `Cc1c2cnn(CC(=O)NC(C)c3ccc4c(c3)OCCO4)c(=O)c2c(C)n1Cc1ccccc1` (stereo not drawn), with 5.91%; and `COc1cccc2c(O)c(NC(=O)NC3CCCCCC3)cnc12`, with 0.401%. As for `CC1=CC2=NC(=O)/C(=C\c3ccc(F)cc3)C(=N)N2O1`, the “% Inhibition @ 10 uM” value was 2%. Turning to `O=C(c1ccco1)N1CCCCCC1`, the “% Inhibition @ 10 uM” value is -3.82%.

In the case of `c1ccc(OCCCN2CCCC2)cc1`, the “% Inhibition @ 10 uM” value is on record as -0.546%. As for `Cc1ccc(C(=O)c2sc3nc4c(cc3c2N)CCCC4)cc1`, the “% Inhibition @ 10 uM” value was -4.94%.

On to `COc1ccc(NC(=O)COc2cccc(C3(C)NC(=O)NC3=O)c2)cc1` (stereo not drawn), for which the “% Inhibition @ 10 uM” value was determined as 4.42%. Next, `CCc1cc(C(=O)OC)c(NC(=O)CC2S/C(=N\C)N(C)C2=O)s1` (stereo not drawn): -1.36%. Next, `COc1ccc2ccccc2c1/C=C(\C#N)C(=O)NCc1cccc(Cl)c1`: 1.42%; `CCCCc1ccc(NC(=O)c2ccc([N+](=O)[O-])o2)cc1`: -5.65%; `COc1cc2c(cc1OC)C(C)N(S(=O)(=O)c1ccccc1)CC2` (stereo not drawn): -1.24%. `O=S(=O)(NCc1ccc2c(c1)OCO2)c1ccccc1F`: the “% Inhibition @ 10 uM” value came to 1.69%. As to `Cc1cc(C)cc(OCC(=O)Nc2ccc(S(=O)(=O)Nc3cc(C)on3)cc2)c1`, the “% Inhibition @ 10 uM” value is on record as -1.44%. Then `CCc1nn(CC(=O)NC(CC)Cc2ccccc2)c(=O)c2cc3sccc3n12` (stereo not drawn), with -3.35%; and `COc1ccc(C2=C(c3ccc(OC)cc3)OCCO2)cc1`, with -3.09%; and `CC(=O)c1ccc(N2CCN(Cc3ccccc3)CC2)cc1`, with 1.38%.

On to `Cc1ccc(S(=O)(=O)N2CCC(C(=O)NCCO)CC2)cc1`, for which the “% Inhibition @ 10 uM” value is recorded as -1.51%. Take `CC1C2CC(CC1(C)C)N(C(=O)Nc1ccc3nccnc3c1)C2` (stereo not drawn): the “% Inhibition @ 10 uM” value was -6.7%.

Regarding `COc1cccc(C2C3=C(O)CC(C)(C)CC3=Nc3ccccc3N2C(=O)C(F)(F)F)c1` (stereo not drawn), the “% Inhibition @ 10 uM” value stood at 3.05%. Then `COc1ccc(-c2nc3c(c(SCC(N)=O)n2)Cc2c(CO)cnc(C)c2O3)cc1`, with 2.75%.

`O=C(CCCCCN1C(=O)c2ccccc2C1=O)N1CCCCC1`: the “% Inhibition @ 10 uM” value is given as 2.45%. For `CC1(C)CC(=O)c2sc(NC(=O)c3ccc(N4C(=O)CCC4=O)cc3)nc2C1`, the “% Inhibition @ 10 uM” value is listed as -0.171%. On to `c1coc(CNC2CN3CCC2CC3)c1` (stereo not drawn), for which the “% Inhibition @ 10 uM” value came out at 1.37%. Next, `COc1ccc(C(CC(=O)NCc2ccc3c(c2)OCO3)N2Cc3ccccc3C2=O)cc1` (stereo not drawn): -5.92%; `CCOc1cc(C2CC(=O)Nc3nc(SC)nc(O)c32)ccc1OCC(N)=O` (stereo not drawn): -4.71%; `CC(=O)N1CCC(=O)N(C(C)=O)c2ccccc21`: 1.43%. Next, `O=[N+]([O-])c1cc(C(F)(F)F)ccc1NS(=O)(=O)c1ccccc1`: -1.77%; `CCN1C(=O)C2(C(C#N)=C(N)Oc3[nH]nc(C(C)C)c32)c2ccccc21` (stereo not drawn): 5.35%; `Cc1c(-c2nsc(NC(=O)c3cccs3)n2)nnn1-c1ccccc1C(F)(F)F`: -3.39%.

For `N#Cc1cnn(-c2cc(Oc3ccccc3)ncn2)c1N`, the “% Inhibition @ 10 uM” value is on record as -0.105%. Then `C#CCN1C(=O)S/C(=C/c2ccc(O)c(OCC)c2)C1=O`, with 0.9%. Next, `O=C(CCN1C(=O)C2C3CCC(C3)C2C1=O)Nc1ccc(Cl)cc1C(=O)c1ccccc1` (stereo not drawn): -1.61%; `CCOc1ccc(C(=O)C2=C(O)C(=O)N(c3ccccn3)C2c2ccc(C)cc2)c(C)c1` (stereo not drawn): -5.63%. Next, `CC(NC(=O)C(=O)NCCN(C)C)C(c1cccs1)N1CCN(Cc2ccccc2)CC1` (stereo not drawn): 3.96%; `O=C(NC1CCCCCC1)c1cnn(-c2ccccc2)c1-n1cccc1`: -1.58%; `CCOC(=O)c1c(C)c(-c2ccccc2)n(CC(=O)NCC2CCCO2)c1C` (stereo not drawn): 1.72%. `Cc1cc(OCC(=O)Nc2ccc(S(=O)(=O)NC(C)(C)C)cc2)ccc1Cl`: the “% Inhibition @ 10 uM” value is -3.65%. In the case of `CCOC(=O)c1sc(C)c(C#N)c1N`, the “% Inhibition @ 10 uM” value was 3.05%.

As to `Cc1ccc(C2=CC(c3cccc(F)c3)n3ncnc3N2)cc1` (stereo not drawn), the “% Inhibition @ 10 uM” value was found to be 4.86%. As for `Cc1ccc(C(C)C)c(OCC(=O)Nc2ccc(S(=O)(=O)N3CCC(C)CC3)cc2)c1`, the “% Inhibition @ 10 uM” value is -3.49%.

Turning to `Cc1ccc(C)c(NC(=O)c2ccc(-c3ccccc3)cc2)c1`, the “% Inhibition @ 10 uM” value is recorded as -4.04%.
